The supplement of paper PMC3334620
Whole data set: some 33,000 sequences, median “E-score (-0.5 to 0.5)” near -0.032, cut for the highest 2% near 0.36. This is one part of the list.

Biological target: T1, Sko1 (UniProt Q02100)
T1 sequence: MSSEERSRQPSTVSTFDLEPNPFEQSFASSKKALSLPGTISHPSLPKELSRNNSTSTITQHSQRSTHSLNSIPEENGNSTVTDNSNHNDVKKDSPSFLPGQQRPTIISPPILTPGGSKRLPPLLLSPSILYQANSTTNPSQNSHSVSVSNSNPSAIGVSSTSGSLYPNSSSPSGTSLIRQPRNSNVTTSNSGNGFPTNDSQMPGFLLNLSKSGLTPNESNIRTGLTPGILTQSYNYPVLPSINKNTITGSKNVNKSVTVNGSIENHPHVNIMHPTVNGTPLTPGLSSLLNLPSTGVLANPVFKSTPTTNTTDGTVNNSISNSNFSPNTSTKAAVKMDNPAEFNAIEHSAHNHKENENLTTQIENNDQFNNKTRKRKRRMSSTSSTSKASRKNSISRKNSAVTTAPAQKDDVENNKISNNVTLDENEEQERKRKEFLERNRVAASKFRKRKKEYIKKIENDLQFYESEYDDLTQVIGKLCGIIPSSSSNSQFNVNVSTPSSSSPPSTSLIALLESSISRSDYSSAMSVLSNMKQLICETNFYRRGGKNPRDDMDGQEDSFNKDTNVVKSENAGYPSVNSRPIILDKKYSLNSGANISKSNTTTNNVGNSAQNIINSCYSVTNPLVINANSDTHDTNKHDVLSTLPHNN
Experiment: PBM E-score (8-mer binding enrichment) (E-score (-0.5 to 0.5)); higher = stronger / more preferred TF binding; most listed sequences are background and not binding sites
Conditions: protein concentration: 200 nM; construct: GST-full length
Procedure, shortened: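 Detection of bound protein used fluorescent anti-GST, with scans normalised by masliner. The proteins were GST-tagged yeast transcription factors applied at about 100-200 nM to universal all-10-mer Agilent arrays made double-stranded by primer extension. Each ungapped eight-base word, pooled with its reverse complement, was scored with an E-score from the Universal PBM Analysis Suite.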

| Sequence | PBM E-score |
| --- | --- |
| ATTCTAAG | 0.16 |
| CCCTCCCC | -0.12 |
| AACAATGA | 0.2 |
| CCACCCCG | -0.129 |
| CCTCAAAC | -0.145 |
| AGACGACA | 0.102 |
| ATATCTGA | 0.127 |
| ACCATAAG | -0.0222 |
| GAGATTGA | 0.0649 |
| CATTCCCA | -0.0105 |
| ATGCCGCA | 0.0038 |
| ACCTGGAA | 0.126 |
| TTCACAAA | 0.0412 |
| CAGGGATA | -0.109 |
| CAGACGTA | 0.387 |
| GACCAAGA | -0.00138 |
| GCTCATCC | -0.123 |
| CCCAGCTA | -0.155 |
| AAACCGCC | -0.159 |
| ACGCCCCC | -0.312 |
| CGCACGTA | 0.408 |
| TTACCTAA | 0.281 |
| GGGCGTAC | -0.0799 |
| GAATATTA | 0.146 |
| CCAATGCG | -0.0652 |

| Sequence | PBM E-score |
| --- | --- |
| ACCATTTA | 0.154 |
| CTGCGGTA | -0.142 |
| GTTGAAGA | 0.127 |
| CCACAAGG | -0.239 |
| GCGGATCC | -0.369 |
| AATTCATG | 0.115 |
| CCACTAGC | -0.119 |
| CACCGATC | -0.0568 |
| CAATGCCC | -0.216 |
| AGGTGAAA | 0.113 |
| ACTCACAA | 0.0209 |
| GAACGCGC | -0.0118 |
| AGAGTGGA | -0.0853 |
| GCGACGAC | -0.08 |
| GCCGTTCA | -0.213 |
| GAGACCTA | -0.097 |
| CCATAGAG | -0.36 |
| ACCACAAT | -0.0211 |
| ATGCCGAC | -0.0808 |
| GCCGCCGC | -0.285 |
| ATGGGGAC | -0.305 |
| ACCTCTCA | -0.0435 |
| CTACTAAC | 0.0153 |
| CAAAGACG | 0.0557 |
| AACGCCAC | 0.0477 |

| Sequence | PBM E-score |
| --- | --- |
| CATGATTA | 0.3 |
| CTCATCGA | -0.0117 |
| AAAGCAGC | 0.0132 |
| ACTACCCG | -0.145 |
| CAAGACAG | -0.0897 |
| AGACGGTG | -0.175 |
| CAGCAATG | -0.129 |
| CTACCTTC | 0.00192 |
| ACGAGTTC | 0.194 |
| CCCAGCGA | -0.181 |
| ACACAGAT | 0.045 |
| GGCCAACA | -0.29 |
| CAATCGAC | 0.0481 |
| ACGAGAGT | 0.191 |
| AGGTTTCC | -0.198 |
| GTTATTTA | 0.189 |
| AAAGCTGA | -0.0979 |
| AGCTTAGC | -0.0914 |
| ATGAATAG | 0.00464 |
| AGAGGAAC | -0.173 |
| CTCCTCCA | 0.0129 |
| GTGAAAAA | 0.0887 |
| CCCTTAGG | -0.18 |
| AGCGTTAG | 0.0418 |
| ATGAACAG | -0.0467 |

| Sequence | PBM E-score |
| --- | --- |
| ACTGACAG | 0.0433 |
| CAGGCGTC | -0.0515 |
| CCATAATC | 0.0831 |
| AGGCTGAC | -0.0184 |
| ATGCCGTG | -0.111 |
| AAGCTAGC | -0.209 |
| CAGAGAAG | -0.149 |
| GGAATAGA | 0.00637 |
| AAGGGTAT | -0.0051 |
| GAAGTTGA | 0.00329 |
| CGACCGAA | -0.144 |
| AGATCTAA | 0.0873 |
| AGAGTGCG | 0.0255 |
| GCCCGTAA | 0.172 |
| CGCCACTA | 0.105 |
| CGGAGACG | 0.0676 |
| CGAACTGA | 0.0253 |
| TCCACAGA | -0.0414 |
| GAACTCCA | -0.0454 |
| CGCCTAAG | -0.226 |
| ATCGTGCG | 0.24 |
| CCAAGTCG | -0.166 |
| GCAGATAA | -0.0499 |
| AATTATGA | 0.312 |
| AGCTTACG | 0.316 |

| Sequence | PBM E-score |
| --- | --- |
| CCCACCTC | -0.304 |
| GAGACAGC | -0.145 |
| AATGCTGA | 0.115 |
| GCCGCTGA | -0.0871 |
| GTATAAGA | 0.18 |
| GACCCTCA | -0.25 |
| ATATACGC | 0.301 |
| CGAAGTCC | -0.207 |
| TGCCCGCA | -0.145 |
| ATTCTCTG | -0.0592 |
| AGTTATCA | 0.146 |
| CGCCTCCG | -0.23 |
| GAGCTATA | -0.00888 |
| AGAACTAT | 0.17 |
| TGTATCAA | 0.168 |
| ACCCGAGC | -0.224 |
| GCCAGACA | -0.133 |
| AGTGCTGG | -0.111 |
| CTACTGAC | -0.0209 |
| ATACCGGG | -0.146 |
| GGTGTCAC | -0.00601 |
| ACAAACTG | -0.235 |
| AGGCGAGG | -0.402 |
| CGGGAAGA | 0.0439 |
| ATGTTATC | 0.108 |

| Sequence | PBM E-score |
| --- | --- |
| AAAAACAG | -0.0289 |
| AGGCAAAT | -0.0124 |
| AGCAATAA | -0.069 |
| GACTTGCA | 0.104 |
| ATGCATGC | 0.101 |
| TCGACCCA | -0.0167 |
| AACGGAAC | 0.07 |
| AGATCGCT | -0.0654 |
| CTCGCTAA | 0.0184 |
| ATTCAAAT | 0.195 |
| ATTACGGG | 0.206 |
| AGTTGTAT | 0.136 |
| TAAGATCA | 0.0522 |
| GCAAGCCA | -0.0958 |
| GAATATGC | -0.0733 |
| GAGCGTTA | -0.0268 |
| ATTGGCAC | -0.122 |
| GATACGGA | -0.0181 |
| CTACGGAC | -0.147 |
| AGACACCA | -0.0103 |
| CCTGTTGA | -0.0898 |
| AGAGTACA | -0.0976 |
| ACCCCGCA | -0.14 |
| GTACTGAC | 0.177 |
| GCGATTCC | -0.285 |

| Sequence | PBM E-score |
| --- | --- |
| ACATACCT | 0.138 |
| CTTACAAG | -0.148 |
| AAATTTGA | 0.218 |
| CCCCGTTA | -0.139 |
| AGGAGGTC | -0.24 |
| CAGCCCAG | -0.283 |
| AACGCTCT | -0.148 |
| AACTACGG | -0.0536 |
| CGATCTTC | -0.192 |
| AGATGGTC | -0.139 |
| CAGAGTCA | -0.0756 |
| TATTCCCA | -0.0503 |
| CGGATCCG | -0.281 |
| GGCCCTAA | -0.259 |
| TATAGGGA | -0.059 |
| AGCCGTTA | 0.0376 |
| GCGGGTCA | -0.189 |
| CGGGCAGC | -0.332 |
| CACCCGCG | 0.0131 |
| CTAGTCAG | -0.163 |
| GCCGCGGA | -0.216 |
| GAGACTAA | 0.0459 |
